Source: paper PMC3405053
Positions count from the first letter of the chain named. These are yes or no findings as the source states them, for the method shown. In cells and extracts the contact can be indirect. Some binding calls cover weakened binding; strength is not graded here.

Amino acid sequences for entries named in this document (tags omitted). A change or cut given only in a name is not applied to a line headed by its entry. Chains listed by the source or under a name are the forms on record and can include a tag or linker.
UniProt Q9R1E0: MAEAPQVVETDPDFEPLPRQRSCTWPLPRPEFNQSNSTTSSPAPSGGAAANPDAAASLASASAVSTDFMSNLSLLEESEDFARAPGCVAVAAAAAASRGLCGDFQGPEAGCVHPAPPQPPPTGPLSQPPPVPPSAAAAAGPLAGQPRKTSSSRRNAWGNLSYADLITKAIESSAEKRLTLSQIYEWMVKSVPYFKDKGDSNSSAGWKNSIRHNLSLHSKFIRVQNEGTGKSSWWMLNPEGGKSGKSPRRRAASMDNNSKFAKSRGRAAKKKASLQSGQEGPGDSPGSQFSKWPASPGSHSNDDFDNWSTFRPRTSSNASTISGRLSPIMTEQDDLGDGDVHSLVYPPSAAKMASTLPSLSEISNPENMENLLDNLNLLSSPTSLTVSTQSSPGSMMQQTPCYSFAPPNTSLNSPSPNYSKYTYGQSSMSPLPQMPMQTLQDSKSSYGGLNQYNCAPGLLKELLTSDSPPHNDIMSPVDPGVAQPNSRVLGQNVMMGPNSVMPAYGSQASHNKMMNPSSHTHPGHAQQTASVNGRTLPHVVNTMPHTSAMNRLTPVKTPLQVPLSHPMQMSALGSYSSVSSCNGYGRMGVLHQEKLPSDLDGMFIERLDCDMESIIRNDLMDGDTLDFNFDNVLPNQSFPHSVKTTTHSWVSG
FOXO1 9A (ERK phosphorylation resistant FOXO1 mutant) (Q9R1E0, form named): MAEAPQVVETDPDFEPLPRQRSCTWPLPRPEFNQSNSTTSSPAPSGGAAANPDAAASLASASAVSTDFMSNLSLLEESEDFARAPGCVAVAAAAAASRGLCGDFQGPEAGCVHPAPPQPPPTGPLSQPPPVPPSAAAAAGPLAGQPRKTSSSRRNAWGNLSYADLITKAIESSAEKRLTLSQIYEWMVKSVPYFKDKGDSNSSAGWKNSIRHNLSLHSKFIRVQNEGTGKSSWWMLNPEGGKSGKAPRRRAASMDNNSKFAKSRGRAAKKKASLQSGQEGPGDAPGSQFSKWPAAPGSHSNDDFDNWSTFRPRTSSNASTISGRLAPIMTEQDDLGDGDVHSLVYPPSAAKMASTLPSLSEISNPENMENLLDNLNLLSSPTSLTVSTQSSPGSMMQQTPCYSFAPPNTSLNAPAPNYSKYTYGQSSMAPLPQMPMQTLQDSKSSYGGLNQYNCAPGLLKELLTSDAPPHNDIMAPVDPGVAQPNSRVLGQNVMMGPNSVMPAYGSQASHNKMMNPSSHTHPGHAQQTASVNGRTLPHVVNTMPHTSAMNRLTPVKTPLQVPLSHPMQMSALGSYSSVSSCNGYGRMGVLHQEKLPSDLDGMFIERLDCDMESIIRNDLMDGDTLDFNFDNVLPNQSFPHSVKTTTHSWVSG

Key:
[1] = target: T1, MAP kinase phosphatase 3 (MKP-3) wild type (mouse) (UniProt Q9DBB1); assay: co-IP; MKP-3 (WT or mutant) and FOXO1 (WT or mutant) co-expressed in Fao hepatoma cells by adenovirus; MKP-3 immunoprecipitated from precleared lysate with MKP-3 antibody-bound Exactra D matrix; western blot
T1 sequence: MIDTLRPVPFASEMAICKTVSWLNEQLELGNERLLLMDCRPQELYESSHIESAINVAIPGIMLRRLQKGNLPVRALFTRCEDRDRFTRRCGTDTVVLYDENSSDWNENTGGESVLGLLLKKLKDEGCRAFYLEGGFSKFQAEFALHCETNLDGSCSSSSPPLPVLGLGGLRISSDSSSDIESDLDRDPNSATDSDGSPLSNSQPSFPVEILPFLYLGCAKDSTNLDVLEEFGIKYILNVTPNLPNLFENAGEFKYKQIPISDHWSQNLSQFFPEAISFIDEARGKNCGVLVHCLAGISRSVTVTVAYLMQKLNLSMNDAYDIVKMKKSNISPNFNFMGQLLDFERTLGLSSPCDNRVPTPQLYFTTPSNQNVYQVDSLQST

[2] = target: T2, MKP-3 153–381 (mouse) (UniProt Q9DBB1); assay: as above
T2 sequence: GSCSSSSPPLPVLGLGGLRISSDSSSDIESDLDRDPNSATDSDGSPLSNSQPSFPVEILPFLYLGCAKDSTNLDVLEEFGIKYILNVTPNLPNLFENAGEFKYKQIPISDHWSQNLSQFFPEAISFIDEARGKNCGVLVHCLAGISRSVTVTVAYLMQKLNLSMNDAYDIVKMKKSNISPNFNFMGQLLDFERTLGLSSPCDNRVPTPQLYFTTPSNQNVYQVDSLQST

[3] = target: T3, MKP-3 1–200 (mouse) (UniProt Q9DBB1); assay: as above
T3 sequence: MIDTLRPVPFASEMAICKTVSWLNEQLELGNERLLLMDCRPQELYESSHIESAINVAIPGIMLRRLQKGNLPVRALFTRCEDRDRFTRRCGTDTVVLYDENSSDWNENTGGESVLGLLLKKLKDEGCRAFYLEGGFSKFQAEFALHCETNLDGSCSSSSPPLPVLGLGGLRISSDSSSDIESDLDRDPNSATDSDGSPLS

[4] = target: T4, MKP-3 1–260 (mouse) (UniProt Q9DBB1); assay: as above
T4 sequence: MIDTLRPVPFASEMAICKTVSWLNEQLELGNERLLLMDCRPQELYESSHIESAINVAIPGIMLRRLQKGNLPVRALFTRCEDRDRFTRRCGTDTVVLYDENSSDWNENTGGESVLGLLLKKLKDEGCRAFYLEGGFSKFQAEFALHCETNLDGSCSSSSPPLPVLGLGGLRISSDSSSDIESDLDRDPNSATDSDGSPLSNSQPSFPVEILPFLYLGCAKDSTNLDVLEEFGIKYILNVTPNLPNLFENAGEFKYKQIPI

[5] = target: T5, MKP-3 1–320 (mouse) (UniProt Q9DBB1); assay: as above
T5 sequence: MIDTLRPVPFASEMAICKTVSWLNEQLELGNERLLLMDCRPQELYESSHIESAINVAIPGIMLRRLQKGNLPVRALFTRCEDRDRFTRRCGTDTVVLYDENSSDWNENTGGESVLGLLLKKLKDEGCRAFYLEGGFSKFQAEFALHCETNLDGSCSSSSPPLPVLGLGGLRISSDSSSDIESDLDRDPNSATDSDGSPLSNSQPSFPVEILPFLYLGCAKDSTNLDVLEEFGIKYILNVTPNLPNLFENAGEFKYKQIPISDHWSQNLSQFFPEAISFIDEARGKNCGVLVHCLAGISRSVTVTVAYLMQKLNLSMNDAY

[6] = target: T6, MKP-3 C293S (mouse) (UniProt Q9DBB1); assay: as above
T6 sequence: T1 sequence with C293S

[7] = target: T7, MKP-3, endogenous in mouse liver (mouse (endogenous in C57BL/6 liver)) (UniProt Q9DBB1); assay: co-IP; liver lysates of C57BL/6 mice injected with adenoviruses (GFP or FOXO1 3A, plus shGFP or shMKP-3); MKP-3 immunoprecipitated with MKP-3 antibody-bound Exactra D matrix; western blot for FOXO1, quantified
T7 sequence: T1 sequence

Substance: FOXO1 wild type (from UniProt Q9R1E0 1-652)
- binding [1]: binds
- binding [2]: binds
- binding [3]: no binding
- binding [4]: binds
- binding [5]: binds
- binding [6]: binds

Substance: FOXO1 1–456 (from UniProt Q9R1E0 1-456) (domain or fragment)
- binding [1]: binds weakly

Substance: FOXO1 1–280 (from UniProt Q9R1E0 1-280) (domain or fragment)
- binding [1]: no binding

Substance: FOXO1 1–558 (from UniProt Q9R1E0 1-558) (domain or fragment)
- binding [1]: binds weakly

Substance: FOXO1, endogenous in mouse liver (from UniProt Q9R1E0 1-652)
- binding [7]: binds

Substance: FOXO1 1–360 (from UniProt Q9R1E0 1-360) (domain or fragment)
- binding [1]: no binding

Substance: FOXO1 9A (ERK phosphorylation resistant FOXO1 mutant) (from UniProt Q9R1E0 1-652)
- binding [1]: no binding
